We go through 93 molecules from PubChem BioAssay AID360 (National Center for Advancing Translational Sciences (NCATS), 2006).

SMILES strings stand for the structures. Hit rate of the full screen: of about 48,000 compounds, about 550 (1.1%) were called active. Another 4% or so got no clear call; they are omitted. No stated cut-off is given here; in the data, active means potency below about 15 µM; inconclusive means mostly about 16 µM to 33 µM; inactive means weaker than that. The list shows a part of the results.
Potency means the concentration at half of the fitted maximal effect.

Chain of UniProt P04062 (P04062 whole entry, looked up): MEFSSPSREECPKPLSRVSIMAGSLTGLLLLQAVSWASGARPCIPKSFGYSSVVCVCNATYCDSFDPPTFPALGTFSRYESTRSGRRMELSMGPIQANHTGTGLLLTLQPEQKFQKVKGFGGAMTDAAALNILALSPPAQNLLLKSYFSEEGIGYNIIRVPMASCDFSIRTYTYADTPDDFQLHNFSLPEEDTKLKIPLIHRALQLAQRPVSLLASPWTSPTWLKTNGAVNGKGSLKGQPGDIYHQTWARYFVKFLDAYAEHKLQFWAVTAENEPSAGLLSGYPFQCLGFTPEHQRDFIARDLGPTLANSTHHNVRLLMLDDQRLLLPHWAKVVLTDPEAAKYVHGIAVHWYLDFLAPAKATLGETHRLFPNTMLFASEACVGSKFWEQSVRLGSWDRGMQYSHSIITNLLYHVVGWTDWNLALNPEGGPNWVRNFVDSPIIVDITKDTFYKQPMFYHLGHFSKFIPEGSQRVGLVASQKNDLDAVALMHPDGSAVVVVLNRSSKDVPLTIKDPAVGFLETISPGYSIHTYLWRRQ

This assay addresses Lysosomal acid glucosylceramidase (Homo sapiens) (UniProt P04062). Put plainly: Glucocerebrosidase.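 Further: the screen sought inhibitors.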 The following applies: purified enzyme, resorufin glucoside fluorescence (screen aimed at inhibitors), 20 min; series mostly up to 77 µM. The gist of the method:
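Normal human glucocerebrosidase (0.2 nM final) was assayed with resorufin β-D-glucopyranoside (30 uM final) in 50mM citric acid/KH2PO4, 10mM sodium taurocholate, 0.01% tween-20, pH 5.9. Compounds were titrated; fluorescence (Ex 548, Em 600) read after 20 min at RT.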
Regarding `COc1ccc(CN2CCOCC2)c(C)c1C`, the Potency was inactive: > 76.9 µM.
`CC(C)CC(=O)N(c1ccc(F)cc1)C1C=CS(=O)(=O)C1` (stereo not drawn): the Potency was inactive: > 76.9 µM.
`CC1CCN(CCc2nc3cc(NC(=O)Nc4ccccc4)ccc3n2C)CC1`: the Potency is inactive: > 76.9 µM.
With `CCOc1ccc(NC(=O)NCCN2C(C)CCCC2C)cc1` (stereo not drawn), the Potency was inactive: > 76.9 µM.
Consider `O=C(c1ccco1)N1CCN(C(c2ccccc2)c2nnnn2Cc2cccs2)CC1` (stereo not drawn), for which the Potency is inactive: > 76.9 µM.
With `COCCn1nnnc1C(c1ccc(O)c(OC)c1)N1CCc2ccccc2C1` (stereo not drawn), the Potency was inactive: > 76.9 µM.
Turning to `OCCn1c(SC2CCCCC2)nc2ccccc21`, the Potency was inactive: > 76.9 µM.
As for `O=C1CC(c2ccc3c(c2)OCO3)c2cc3c(cc2N1)OCCO3` (stereo not drawn), the Potency was inactive: > 76.9 µM.
In the case of `CN(C)C(=O)N1CCN(C(=O)N(C)C)CC1`, the Potency is inactive: > 76.9 µM.
As for `Cn1c(Cn2cnc3ccccc32)nnc1SCC(=O)CC(=O)Nc1ccccc1`, the Potency was inactive: > 76.9 µM.
Take `Clc1ccc(-c2nn3c(C4COc5ccccc5O4)nnc3s2)cc1` (stereo not drawn): the Potency was inactive: > 76.9 µM.
On to `CC(=O)C1=C(O)C(=O)N(Cc2cccnc2)C1c1ccccc1` (stereo not drawn), for which the Potency was inactive: > 76.9 µM.
With `CS(=O)(=O)N(CCc1ccccc1)CC(=O)N1CCN(c2ccccc2F)CC1`, the Potency was inactive: > 76.9 µM.
On to `Cc1csc2nc(=O)c3ccccc3n12`, for which the Potency was inactive: > 76.9 µM.
For `COc1cc(CN/C(C)=C(\C#N)C(N)=O)cc(OC)c1OC`, the Potency entry was “inactive”.
In the case of `O=C(NC1CCCC1)C(c1ccccn1)N(C(=O)c1csnn1)C1CC1` (stereo not drawn), the Potency was inactive: > 76.9 µM.
On to `O=C(CN1CCN(CCC(=O)Nc2ccccc2F)CC1)Nc1ccc(Cl)cc1`, for which the Potency was inactive: > 76.9 µM.
For the molecule `COc1ccc(-c2nnc(SC)n2C)cc1`, the Potency was inactive: > 76.9 µM.
The result for `CCOC(=O)c1cc(=O)n2nc(-c3ccccc3F)nc2s1` reads inactive: > 76.9 µM; that for `Cc1c(C(=O)NCc2ccccn2)oc2ccccc12`, inactive: > 76.9 µM; that for `COc1ccc(C2c3c(oc4c(C)cc(C)cc4c3=O)C(=O)N2Cc2cccnc2)cc1OC` (stereo not drawn), inactive: > 76.9 µM.
The result for `Cc1ccc2c(c1)C1CN(C)CCC1N2C(=O)Nc1ccc(Cl)cc1` (stereo not drawn) reads “inactive”.
The result for `O=C(O)C1C2C=CC(C2)C1C(=O)N1CCN(C/C=C/c2ccccc2)CC1` (stereo not drawn) reads inactive: > 76.9 µM; that for `Cc1ccc(-c2nnnn2CS(=O)(=O)c2ccccc2)cc1`, inactive: > 76.9 µM; that for `CCOC(=O)c1cc2oc(C)cc2n1CC(=O)OC1CCCCC1`, inactive: > 76.9 µM.
Turning to `CCn1nnnc1SCC(=O)NCc1cccs1`, the Potency was inactive: > 76.9 µM.
The result for `O=C(c1cnn2cccnc12)N1CCN(c2ccccc2)CC1` reads inactive: > 76.9 µM; that for `CCOc1ccc(-n2c(Cc3ccccc3)nnc2SCc2c(C)noc2C)cc1`, inactive: > 76.9 µM.
Consider `COc1ccc(-n2ncc3c(=O)n(CC(=O)N4CCCc5ccccc54)cnc32)cc1`, for which the Potency result is “inactive”.
Consider `O=C(NC1CC1)C1CCN(c2ccc(S(=O)(=O)N3CCOCC3)cc2)CC1`, for which the Potency was inactive: > 76.9 µM.
The result for `Nn1c(SCc2cn3ccsc3n2)nnc1-c1ccncc1` reads inactive: > 76.9 µM.
Regarding `COc1ccc(NC(=O)C23CCC(C)(C(=O)O2)C3(C)C)cc1` (stereo not drawn), the Potency is inactive: > 76.9 µM.
For the molecule `CCCCC(=O)NC1(C(F)(F)F)C(=O)Nc2c1c(=O)n(C)c(=O)n2C` (stereo not drawn), the Potency was inactive: > 76.9 µM.
As for `CCOc1cc(CN2CCN(C(=O)CC(C)C)CC2)ccc1OC`, the Potency is inactive: > 76.9 µM.
Consider `CCN(CC)CCNc1nc2c(c(=O)n(C)c(=O)n2C)n1C/C=C(/C)Cl`, for which the Potency was inactive: > 76.9 µM.
As to `Clc1cccc(CSc2nnc(-c3cccnc3)n2Cc2ccco2)c1`, the Potency is inactive: > 76.9 µM.
Consider `Cc1c(C(=O)COC(C)(C)C)[nH]c2ccccc12`, for which the Potency is inactive: > 76.9 µM.
Turning to `CNc1nc(N)c(C(=O)C(C)(C)C)s1`, the Potency was inactive: > 76.9 µM.
With `CCCCc1nnc(NC(=O)C2CCCO2)s1` (stereo not drawn), the Potency is inactive: > 76.9 µM.
Consider `COCCNC(=O)C(c1cccs1)N(C(=O)Cn1nnc2ccccc21)c1ccc2c(c1)OCO2` (stereo not drawn), for which the Potency was inactive: > 76.9 µM.
For `Cc1cc(C)n2c(SCCC(C)C)nnc2n1`, the Potency was inactive: > 76.9 µM.
Consider `O=C(NCCN1CCOCC1)C1CCN(Cc2ccccc2O)CC1`, for which the Potency is inactive: > 76.9 µM.
Consider `Cc1n[nH]c(C)c1S(=O)(=O)N1CCN(c2ccccn2)CC1`, for which the Potency was inactive: > 76.9 µM.
Take `CN1CCCC(OC(=O)c2cc(Cl)ccc2Cl)C1` (stereo not drawn): the Potency was inactive: > 76.9 µM.
Consider `O=C(CSc1ncn[nH]1)NC1CC2CCC1C2` (stereo not drawn), for which the Potency is inactive: > 76.9 µM.
As for `CNc1nc2sc3c(c2c(=O)n1C)CC(C)(C)SC3`, the Potency was inactive: > 76.9 µM.
For the molecule `Cn1c(SCc2nnc(-c3ccccc3Br)o2)nc2sc3c(c2c1=O)CCC3`, the Potency was inactive: > 76.9 µM.
For the molecule `N#Cc1nc(COc2ccc(F)cc2)oc1N1CCC(Cc2ccccc2)CC1`, the Potency is inactive: > 76.9 µM.
For `CCOc1cc(NC(=O)c2ccco2)c(OCC)cc1NC(=O)CCc1ccccc1OC` the value was inactive: > 76.9 µM.
On to `Cc1csc(SCC(=O)Nc2ccccn2)n1`, for which the Potency entry was “inactive”.
For `Cc1ccccc1C(=O)NC1CC(C)(C)NC(C)(C)C1` the value was inactive: > 76.9 µM; for `CCCN(CCC)CCNc1c(N2CCN(C(=O)OCC)CC2)c(=O)c1=O`, inactive: > 76.9 µM; for `Cc1nc(SCCCSc2n[nH]c(C)n2)n[nH]1`, inactive: > 76.9 µM.
With `Cn1c2c(c(=O)n(C)c1=O)C(c1cccc(Br)c1)C1C(=O)c3ccccc3C1=N2` (stereo not drawn), the Potency was inactive: > 76.9 µM.
With `O=C(COC(=O)CCNS(=O)(=O)c1ccc(Cl)cc1)NCc1ccco1`, the Potency is inactive: > 76.9 µM.
The result for `Cc1cc(C(=O)CSc2nnc(Nc3ccccc3)s2)c(C)n1CC1CCCO1` (stereo not drawn) reads inactive: > 76.9 µM; that for `COc1cccc(Oc2ccc(N)cc2)c1`, inactive: > 76.9 µM; that for `Cc1nc(CSc2nc3[nH]ncc3c(=O)n2-c2ccccc2)cs1`, inactive: > 76.9 µM.
In the case of `O=S(=O)(NCC1CCCO1)c1ccc2oc3ccc(S(=O)(=O)NCC4CCCO4)cc3c2c1` (stereo not drawn), the Potency is inactive: > 76.9 µM.
For `Cc1ccc2nsnc2c1S(=O)(=O)Nc1cccc2nsnc12`, the Potency was inactive: > 76.9 µM.
For `O=C(c1ccco1)N1CCN(S(=O)(=O)c2ccc3c(c2)CCN3C(=O)C2CC2)CC1` the value was inactive: > 76.9 µM; for `COc1ccc(CCCc2nnc(SCC(=O)Nc3cc(C)c(C)cc3Br)o2)cc1`, inactive: > 76.9 µM; for `COC(=O)c1ccc(CSc2nnnn2Cc2ccccc2)cc1`, inactive: > 76.9 µM.
For the molecule `N#Cc1ccccc1-n1c(N)c(C(=O)N2CCCC2)sc1=S`, the Potency was inactive: > 76.9 µM.
Take `CCCCCCNC(=O)c1c(N)n(/N=C/c2ccco2)c2nc3ccccc3nc12`: the Potency was inactive: > 76.9 µM.
The result for `CCC(C)[C@H](NC(=O)NCc1ccc(Cl)cc1)C(=O)OC` (stereo partly drawn) reads inactive: > 76.9 µM.
In the case of `O=C(OCc1nnc(-c2ccccc2)o1)c1ccco1`, the Potency is inactive: > 76.9 µM.
In the case of `CC(C)(C)c1ccc(S(=O)(=O)NCC(=O)N2CCN(C(=O)c3ccco3)CC2)cc1`, the Potency is inactive: > 76.9 µM.
Turning to `CCCNS(=O)(=O)c1ccc(OCC(=O)NCc2ccco2)cc1`, the Potency is inactive: > 76.9 µM.
Take `Oc1ccccc1C1=NCCNC(C(F)(F)C(F)F)=C1`: the Potency is inactive: > 76.9 µM.
As for `O=C(NCc1ccncc1)/C(=N/O)c1ccccc1`, the Potency is inactive: > 76.9 µM.
Turning to `Cc1ccc(NCCNc2ccc(C)cc2)cc1`, the Potency is inactive: > 76.9 µM.
Take `CC(C)COc1cc(=O)[nH]c(SCC(C)C)n1`: the Potency is inactive: > 76.9 µM.
The result for `CC(C)Cc1nnc(NC(=O)CSc2nc(=O)cc(N)n2-c2ccccc2)s1` reads inactive: > 76.9 µM.
As for `Cc1cc(C)nc(N2CCC(C(=O)Nc3ccc4c(c3)OCO4)CC2)n1`, the Potency was inactive: > 76.9 µM.
As to `Cc1ccc(-c2cc(C(F)(F)F)n3ncc(C(=O)O)c3n2)cc1`, the Potency was inactive: > 76.9 µM.
As for `CCCn1c(SCC(=O)NCCc2ccc(OC)c(OC)c2)nc2c1c(=O)n(C)c(=O)n2C`, the Potency was inactive: > 76.9 µM.
On to `COc1ccc(N2CCn3c2nc2c3c(=O)n(CCc3ccccc3)c(=O)n2C)cc1`, for which the Potency is inactive: > 76.9 µM.
Regarding `CC(=O)c1ccc(NC(=O)CCNS(=O)(=O)c2cccc3nonc23)cc1`, the Potency is inactive: > 76.9 µM.
For `CCc1ccc(-c2nnn(Cc3nc4ccccc4s3)n2)cc1`, the Potency is inactive: > 76.9 µM.
The result for `CCCN1Cc2cccc(C(=O)NCCCOC(C)C)c2C1=O` reads inactive: > 76.9 µM.
Regarding `COc1ccc(OC)c(C2C(C(=O)Nc3cccnc3)=C(C)NC3=C2C(=O)CCC3)c1` (stereo not drawn), the Potency was inactive: > 76.9 µM.
Consider `CCOc1ncccc1C(=O)Nc1ccc(Cl)cc1`, for which the Potency was inactive: > 76.9 µM.
For the molecule `Cc1cc(C)n2cc(CSc3nnnn3C)nc2n1`, the Potency was inactive: > 76.9 µM.
As to `COc1ccc(C2=CC(c3c(C)nn(-c4ccccc4)c3Cl)n3nnnc3N2)cc1OC` (stereo not drawn), the Potency was inactive: > 76.9 µM.
Consider `O=C1CN(C(=O)COC(=O)C2CC(=O)N(Cc3ccco3)C2)c2ccccc2N1` (stereo not drawn), for which the Potency is inactive: > 76.9 µM.
For the molecule `CCOC(=O)N1CCC(Nc2c(NCCN3CCN(Cc4ccccc4)CC3)c(=O)c2=O)CC1`, the Potency is inactive: > 76.9 µM.
`Cc1ccc(Oc2ccc(N)cc2)cc1`: the Potency is inactive: > 76.9 µM.
For `O=C(Nc1ccc2c(c1)OCO2)c1cnn2cccnc12`, the Potency was inactive: > 76.9 µM.
In the case of `CCC(=O)OCC(=O)c1c(N)n(Cc2ccccc2)c(=O)n(C)c1=O`, the Potency is inactive: > 76.9 µM.
As to `Cc1cc(C(=O)CSC(C)c2nc3ccccc3c(=O)[nH]2)c(C)n1C` (stereo not drawn), the Potency was inactive: > 76.9 µM.
For `CCCc1nc2oc(C(=O)OCC)c(N)c2c2c1COC(C)(C)C2` the value was inactive: > 76.9 µM; for `O=C(NC1CCCCCC1)C1c2ccccc2C(=O)N1C1CC1` (stereo not drawn), inactive: > 76.9 µM.
